From article PMC4336329 (PLoS ONE, 2015)
The campaign covered roughly 310,000 compounds. About 2,200 (0.71%) showed an effect of 50% or more. The effect is printed as a negative number. Some of the results follow.

Target: human ether-à-go-go-related gene (hERG) potassium channel (human, UniProt Q12809)
Assay: primary screen, population patch clamp on CHO cells stably expressing hERG

Sequence of human ether-à-go-go-related gene (hERG) potassium channel (Q12809 whole entry, looked up): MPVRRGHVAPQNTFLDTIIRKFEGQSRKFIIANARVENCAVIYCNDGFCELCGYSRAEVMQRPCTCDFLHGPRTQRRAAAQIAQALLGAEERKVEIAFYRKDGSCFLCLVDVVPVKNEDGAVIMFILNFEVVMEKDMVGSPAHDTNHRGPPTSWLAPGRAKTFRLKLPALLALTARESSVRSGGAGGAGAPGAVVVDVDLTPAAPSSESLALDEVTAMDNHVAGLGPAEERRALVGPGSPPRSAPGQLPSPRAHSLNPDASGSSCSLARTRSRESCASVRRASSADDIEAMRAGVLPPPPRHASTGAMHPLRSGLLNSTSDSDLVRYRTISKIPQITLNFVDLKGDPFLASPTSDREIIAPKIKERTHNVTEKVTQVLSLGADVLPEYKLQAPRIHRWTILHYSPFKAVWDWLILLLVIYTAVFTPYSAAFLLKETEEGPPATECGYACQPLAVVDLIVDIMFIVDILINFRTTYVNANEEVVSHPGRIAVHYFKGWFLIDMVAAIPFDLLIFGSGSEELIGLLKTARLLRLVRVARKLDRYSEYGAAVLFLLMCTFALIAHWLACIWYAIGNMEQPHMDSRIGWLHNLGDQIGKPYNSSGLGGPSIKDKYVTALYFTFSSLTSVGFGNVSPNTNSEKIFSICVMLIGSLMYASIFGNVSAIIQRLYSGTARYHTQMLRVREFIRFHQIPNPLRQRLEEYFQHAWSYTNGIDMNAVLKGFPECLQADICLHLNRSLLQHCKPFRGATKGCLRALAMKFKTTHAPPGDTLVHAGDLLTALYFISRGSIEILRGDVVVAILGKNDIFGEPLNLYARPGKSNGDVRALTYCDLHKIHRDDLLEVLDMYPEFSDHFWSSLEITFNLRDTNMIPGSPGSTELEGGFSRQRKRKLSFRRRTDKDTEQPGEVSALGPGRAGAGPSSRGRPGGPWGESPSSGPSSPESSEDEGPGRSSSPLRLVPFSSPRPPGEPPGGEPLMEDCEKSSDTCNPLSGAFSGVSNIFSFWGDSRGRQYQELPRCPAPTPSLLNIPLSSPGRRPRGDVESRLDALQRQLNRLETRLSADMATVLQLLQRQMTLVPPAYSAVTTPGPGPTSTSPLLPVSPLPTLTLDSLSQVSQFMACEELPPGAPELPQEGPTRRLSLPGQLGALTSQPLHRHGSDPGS

Row | SMILES | hERG current change (%, negative = inhibition) at 1uM
1 | O=C(COC(=O)c1ccc(F)cc1Cl)NC(=O)NC1CCCC1 | 7.65%
2 | CC(C)C(=O)Nc1nnn(C)n1 | 6.03%
3 | Cc1ccc(S(=O)(=O)NC(C(=O)Oc2ccc3c(C(F)(F)F)cc(=O)oc3c2)c2ccccc2)cc1 (stereo not drawn) | 5.76%
4 | O=C(CC(=O)c1ccccc1)Nc1ccccn1 | 8.5%
5 | COc1ccccc1OCCNC(=O)c1ccc2c(c1)OCCO2 | 19.9%
6 | O=C(NC1CC1)c1cc(-c2ccc(Br)cc2)nc2ccccc12 | 2.54%
7 | CCOc1cc(/C=N/NC(=O)c2cccnc2)ccc1OCC(=O)N1CCOCC1 | 3.03%
8 | COc1cc(OC)c(OC)cc1CN1CCC(O)CC1.Cl | 13.6%
9 | C=CCNC(=O)C(C)Sc1ccc(Cl)cc1 (stereo not drawn) | 7.21%
10 | CC(=O)Nc1ccc(NC(=O)C(C)OC(=O)CNS(=O)(=O)c2ccc(Br)cc2Cl)cc1 (stereo not drawn) | 15.3%
11 | CCCSc1nnc(CSc2nc3ccccc3s2)n1-c1ccccc1 | 4.42%
12 | O=C(NCc1cc([N+](=O)[O-])ccc1O)c1cc(-c2ccncc2)nc2ccccc12 | 10.2%
13 | CC(Sc1ncn[nH]1)C(=O)Nc1ccc(Cl)cn1 (stereo not drawn) | 16.7%
14 | CC(=O)Nc1n[nH]c(S(=O)(=O)Cc2ccc(Cl)cc2Cl)n1 | 10.2%
15 | Cc1nn(-c2ccccc2)c(C)c1NC(=O)COC(=O)CCCOc1ccccc1 | 1.82%
16 | CC(C)(C)NC(=O)NC(=O)COC(=O)Cc1coc2ccc3ccccc3c12 | -10.9%
17 | CCOC(=O)N1CCC(NC(=O)C2CCCN(S(=O)(=O)c3cccnc3)C2)CC1 (stereo not drawn) | 8.47%
18 | CCc1ccc(C(C)NC(=O)c2cccs2)cc1 (stereo not drawn) | 12.5%
19 | O=C(NC1CC1)C1CC(=O)N(c2ccccc2)C1 (stereo not drawn) | 14.3%

Row | SMILES | hERG current change (%, negative = inhibition) at 1uM
20 | CC(C)OC(=O)C1Cc2ccccc2CN1S(=O)(=O)c1cccs1 (stereo not drawn) | 12.4%
21 | O=C(CCSc1ccccc1)Nc1nnc(-c2cccs2)o1 | 5%
22 | CC1(C)CC(=O)C/C(=N\NC(=O)Cc2ccccc2)C1 | 17.2%
23 | CC(=O)N1CCN(S(=O)(=O)c2ccc(C)c([N+](=O)[O-])c2)C1C(C)C (stereo not drawn) | 16%
24 | O=C(C1CCN(S(=O)(=O)c2ccccc2)CC1)N1CCN(c2ccccc2)CC1 | 8.6%
25 | CC(=O)N1CCN(c2ccccc2NC(=O)c2ccc(Br)o2)CC1 | -23.5%
26 | CCN(CC)CCN(C(=O)c1ccc2c(c1)OCCO2)c1nc2cc(C)cc(C)c2s1.Cl | -43.1%
27 | COc1ccccc1NS(=O)(=O)c1cccc(C(=O)NCc2ccccn2)c1 | 14.3%
28 | C=CCn1c(N2C(=O)CC(Cc3ccccc3)C2=O)nc2ccccc21 (stereo not drawn) | -6.06%
29 | CC(=O)Nc1ccc(NC(=O)CN(C)S(=O)(=O)c2ccc3c(c2)CCC(=O)N3)cc1 | 15.2%
30 | CCCCN(C)C(=O)CSc1nc(NCc2ccc(OC)cc2)c2ccccc2n1 | -41.5%
31 | Cc1ccccc1-c1nnc(SCC(=O)Nc2cccc(C)c2C)o1 | 0.205%
32 | COc1ccc(-c2nnc(-c3ccc(Br)o3)o2)cc1OC | 8.87%
33 | CC1CCCCN1C(=O)CSc1ccc(-c2ccc(F)cc2)nn1 (stereo not drawn) | -4.47%
34 | COc1ccc(-c2noc(C)c2-c2ccc3ccccc3n2)c(O)c1 | 7.25%
35 | CCOc1ccccc1C(=O)N[C@H](C(=O)Nc1cc(S(=O)(=O)N(C)C)ccc1OC)C(C)C | -1.21%
36 | Cc1[nH]c2ccccc2c1C(=O)COC(=O)Cn1c(C)nc2ccccc21 | 11.3%
37 | COc1ccc(OC)c(NC(=O)COC(=O)COc2c(Cl)cc(Cl)c3ccc(C)nc23)c1 | 9.96%
38 | CCOC(=O)c1ccc(NC(=O)CCc2ccc(C)o2)cc1 | 10.9%

Row | SMILES | hERG current change (%, negative = inhibition) at 1uM
39 | COC(=O)C1=C(C)Nc2nnnn2C1c1ccccc1Cl (stereo not drawn) | 7.35%
40 | O=C(Nc1ccc(N2CCOCC2)cc1)c1cc2c(s1)CCCC2 | 6.93%
41 | COC(=O)N/N=C\c1c(C)[nH]n(-c2ccccc2)c1=O | 16.4%
42 | CC(=O)Oc1ccc(N(C(C)=O)S(=O)(=O)c2cccs2)c2ccccc12 | 10.6%
43 | C=CCn1c(SCC(=O)Nc2cccc(OC)c2)nnc1-c1cccnc1 | -20.9%
44 | COc1ccc2cc(C(=O)C3CCCN(C(=O)CCc4cnn(C)c4)C3)ccc2c1 (stereo not drawn) | 8.19%
45 | O=C(Nc1cccc2ncccc12)c1ccc(Cl)cc1 | 12.7%
46 | CNc1c(NC(=O)COc2ccc(Cl)cc2)c(=O)oc2ccccc12 | 6.12%
47 | CC(=O)N1CCC(N(CCN2CCOCC2)C(=S)Nc2cc(C)ccc2C)CC1 | 11.1%
48 | Cc1ccc(C(=O)Nc2ccc(N3CCN(S(C)(=O)=O)CC3)cc2)cc1 | 6.82%
49 | CCc1nn(-c2ccccc2)c(N)c1-c1ccc(OC)c(OC)c1 | 8.68%
50 | CCCNC(=O)c1cn(CC)c2cc(N3CCN(C(=O)c4ccco4)CC3)c(F)cc2c1=O | -7.06%
51 | O=C(/C=C/c1ccc(-c2ccccc2[N+](=O)[O-])o1)c1ccccc1 | 8.41%
52 | CC(C)(C)n1ncc2c(=O)n(Cc3ccccc3Br)cnc21 | 10.3%
53 | CC(=O)CSc1ncnc2sc3c(c12)CCC3 | 11.8%
54 | COc1cc(C2NC(=O)NC(C)=C2[N+](=O)[O-])cc(OC)c1OC (stereo not drawn) | 14.4%
55 | c1ccc2c(c1)nc1n2CCN1 | 12.8%
56 | COc1ccccc1NC(=O)CCCC(=O)OCC(=O)c1ccc(F)cc1 | 7.77%
57 | Cn1nnnc1SCC(=O)Nc1ccc(N2CCOCC2)cc1 | 4.43%
